We go through nine variants from the supplement of paper PMC12217912.

This is one part of the list. Sequences were assembled here from the parent chain. Values near 0.05 are background.

B1: TEV protease; numbered along this chain (parent)
chain: MGESLFKGPRDYNPISSSICHLTNESDGHTTSLYGIGFGPFIITNKHLFRRNNGTLVVQSLHGVFKVKDTTTLQQHLVDGRDMIIIRMPKDFPPFPQKLKFREPQREERICLVTTNFQTKSMSSMVSDTSCTFPSGDGIFWKHWIQTKDGQCGSPLVSTRDGFIVGIHSASNFTNTNNYFTSVPKNFMELLTNQEAQQWVSGWRLNADSVLWGGHKVFMVKPEEPFQPVKEATQL

The variants in the assay derive from B1. The assay is described as follows: raw area under fraction-flipped curve 0-4 h after induction (AUC4h, not background-subtracted), DNA-recorder readout of cleavage of the substrate (dimensionless); higher = more cleavage of the substrate by the protease variant. The conditions noted are these: temperature: 34 °C; time window: 0-4 h after rhamnose induction. On the procedure:
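In vivo DNA recorder in E. coli TOP10(DE3) ΔrhaA at 34 °C. Each TEVp single-site mutant (parent TEVp 0) is paired with a single-site variant of the 7-mer TEVs (canonical ENLYFQ|S). The substrate sits between flexible linkers in a Bxb1-sfGFP-TEVs-SsrA fusion, so cleavage stabilises Bxb1 and speeds flipping of a recombination array, read by NGS. The value is the raw area under the fraction-flipped curve over 0-4 h after rhamnose induction (AUC4h), with ≥20 reads per time point. It is not background-subtracted; inactive controls average about 0.047.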
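Also: Bxb1 expression induced with 0.2% (w/v) L-rhamnose at OD600 near 0.5, cultures sampled hourly, flipped fraction per protease–substrate barcode pair counted by paired-end Illumina sequencing.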

In the case of MGESLFKGPRDYNPISSSICHLTNESDGHTTSLYGIGFGPFIITNKHLFRRNNGTLVVQSLHGVFKVKDTTTLQQHLVDGRDMIIIRMPKDFPPFPQKLKFREPQREERICLVTTNFQTKSMSSMVSDTSCTFPSGDGIFWKHWIQTKDGQCGSPLVSTRDGFIVGIHSASNFTNTNNYFTSVPKNFMELLTNQEAQQWVSAWRLNADSVLWGGHKVFMVKPEEPFQPVKEATQL [G202A], the “area with substrate EALYFQS” value came out at 0.0956, the “area with substrate ECLYFQS” value came to 0.0715, the “area with substrate EELYFQS” value is 0.0813 and the “area with substrate EFLYFQS” value was 0.0717. For the same variant, the “area with substrate EGLYFQS” value came to 0.0646, the “area with substrate EHLYFQS” value was 0.076, the “area with substrate EILYFQS” value was determined as 0.081 and the “area with substrate EKLYFQS” value stood at 0.0649. Moreover, the “area with substrate ELLYFQS” value was 0.0691, the “area with substrate EMLYFQS” value amounted to 0.0819, the “area with substrate EQLYFQS” value turned out to be 0.093 and the “area with substrate ERLYFQS” value turned out to be 0.073. Moreover, the “area with substrate ESLYFQS” value amounted to 0.0741 and the “area with substrate EVLYFQS” value was determined as 0.0744.
As for MGESLFKGPRDYNPISSSICHLTNESDGHTTSLYGIGFGPFIITNKHLFRRNNGTLVVQSLHGVFKVKDTTTLQQHLVDGRDMIIIRMPKDFPPFPQKLKFREPQREERICLVTTNFQTKSMSSMVSDTSCTFPSGDGIFWKHWIQTKDGQCGSPLVSTRDGFIVGIHSASNFTNTNNYFTSVPKNEMELLTNQEAQQWVSGWRLNADSVLWGGHKVFMVKPEEPFQPVKEATQL [F187E], the “area with substrate EALYFQS” value is 0.068, the “area with substrate ECLYFQS” value stood at 0.0604, the “area with substrate EDLYFQS” value is 0.0712 and the “area with substrate EELYFQS” value came out at 0.0449. In addition, the “area with substrate EGLYFQS” value turned out to be 0.0464, the “area with substrate EHLYFQS” value worked out at 0.0498, the “area with substrate EILYFQS” value stood at 0.0505 and the “area with substrate EKLYFQS” value was found to be 0.0563. Also, the “area with substrate ELLYFQS” value turned out to be 0.064, the “area with substrate EMLYFQS” value was 0.0537, the “area with substrate EPLYFQS” value amounted to 0.0565 and the “area with substrate EQLYFQS” value worked out at 0.056. For the same variant, the “area with substrate ERLYFQS” value was found to be 0.0514, the “area with substrate ESLYFQS” value stood at 0.056, the “area with substrate EVLYFQS” value was found to be 0.0581 and the “area with substrate EWLYFQS” value stood at 0.0471. The “area with substrate EYLYFQS” value stood at 0.0476.
With MGESLFKGPRDYNPISSSICHLTNESDGHTTSLYGIGFGPFIITNKHLFRRNNGTLVVQSLHGVFKVKDTTTLQQHLVDGRDMIIIRMPKDFPPFPQKLKFREPQREERICLVTTNFQTKSMSSMVSDTSCTFPSGDGIFWKHWIQTKDGQCGSPLVSTRDGFIVGIHSASNFTNTNNYFMSVPKNFMELLTNQEAQQWVSGWRLNADSVLWGGHKVFMVKPEEPFQPVKEATQL [T181M], the “area with substrate EALYFQS” value was found to be 0.0715, the “area with substrate ECLYFQS” value stood at 0.0641, the “area with substrate EELYFQS” value is 0.0617 and the “area with substrate EGLYFQS” value came out at 0.0663. For the same variant, the “area with substrate EHLYFQS” value was 0.0763, the “area with substrate EKLYFQS” value was determined as 0.0691, the “area with substrate ELLYFQS” value amounted to 0.0598 and the “area with substrate EPLYFQS” value was 0.0819. Besides, the “area with substrate EQLYFQS” value came out at 0.072, the “area with substrate ESLYFQS” value amounted to 0.085, the “area with substrate ETLYFQS” value amounted to 0.0817 and the “area with substrate EVLYFQS” value was found to be 0.0701. In addition, the “area with substrate EWLYFQS” value is 0.0697 and the “area with substrate EYLYFQS” value amounted to 0.0761.
As for MGESLFKGPRDYNPISSSICHLTNESDGHTTSLYGIGFGPFIITNKHLFRRNNGTLVVQSLHGVFKVKDTTTLQQHLVDGRDMIIIRMPKDFPPFPQKLKFREPQREERICLVTTNFQTKSMSSMVSDTSCTFPSGDGIFWKHWIQTKDGQCGSPLVSTRDGFIVGIHSASNFTNTNNYFLSVPKNFMELLTNQEAQQWVSGWRLNADSVLWGGHKVFMVKPEEPFQPVKEATQL [T181L], the “area with substrate EALYFQS” value amounted to 0.0694, the “area with substrate EDLYFQS” value came out at 0.0629, the “area with substrate EELYFQS” value is 0.0607 and the “area with substrate EFLYFQS” value stood at 0.0378. In addition, the “area with substrate EGLYFQS” value was 0.0792, the “area with substrate EMLYFQS” value amounted to 0.0606, the “area with substrate EQLYFQS” value was 0.0511 and the “area with substrate ERLYFQS” value is 0.0736. In addition, the “area with substrate ESLYFQS” value amounted to 0.066 and the “area with substrate EWLYFQS” value was determined as 0.0616.
Take MGESLFKGPRDYNPISSSICHLTNESDGHTTSLYGIGFGPFIITNKHLFRRNNGTLVVQSLHGVFKVKDTTTLQQHLVDGRDMIIIRMPKDFPPFPQKLKFREPQREERICLVTTNFQTKSMSSMVSDTSCTFPSGDGIFWKHWIQTKDGQCGSPLVSTRDGFIVGIHSASNFTNTNNYFTSVPKLFMELLTNQEAQQWVSGWRLNADSVLWGGHKVFMVKPEEPFQPVKEATQL [N186L]: the “area with substrate EALYFQS” value turned out to be 0.148, the “area with substrate ECLYFQS” value was 0.131, the “area with substrate EELYFQS” value amounted to 0.207 and the “area with substrate EFLYFQS” value worked out at 0.115. Moreover, the “area with substrate EHLYFQS” value is 0.132, the “area with substrate EILYFQS” value worked out at 0.108, the “area with substrate EKLYFQS” value was 0.124 and the “area with substrate ELLYFQS” value turned out to be 0.101. Besides, the “area with substrate EMLYFQS” value was determined as 0.146, the “area with substrate EPLYFQS” value was found to be 0.147, the “area with substrate ERLYFQS” value amounted to 0.127 and the “area with substrate ESLYFQS” value worked out at 0.0996. In addition, the “area with substrate EVLYFQS” value was determined as 0.152 and the “area with substrate EYLYFQS” value is 0.124.
Turning to MGESLFKGPRDYNPISSSICHLTNESDGHTTSLYGIGFGPFIITNKHLFRRNNGTLVVQSLHGVFKVKDTTTLQQHLVDGRDMIIIRMPKDFPPFPQKLKFREPQREERICLVTTNFQTKSMSSMVSDTSCTFPSGDGIFWKHWIQTKDGQCGSPLVSTRDGFIVGIHSASNFTNTNNYFTSVPKMFMELLTNQEAQQWVSGWRLNADSVLWGGHKVFMVKPEEPFQPVKEATQL [N186M], the “area with substrate EALYFQS” value was determined as 0.105, the “area with substrate ECLYFQS” value came to 0.0893, the “area with substrate EDLYFQS” value was determined as 0.136 and the “area with substrate EILYFQS” value was found to be 0.176. For the same variant, the “area with substrate ELLYFQS” value stood at 0.0545, the “area with substrate EPLYFQS” value stood at 0.105, the “area with substrate EQLYFQS” value is 0.103 and the “area with substrate ESLYFQS” value amounted to 0.0973. For the same variant, the “area with substrate ETLYFQS” value came to 0.109.
As to MGESLFKGPRDYNPISSSICHLTNESDGHTTSLYGIGFGPFIITNKHLFRRNNGTLVVQSLHGVFKVKDTTTLQQHLVDGRDMIIIRMPKDFPPFPQKLKFREPQREERICLVTTNFQTKSMSSMVSDTSCTFPSGDGIFWKHWIQTKDGQCGSPLVSTRDGFIVGIHSASNFTNTNNYFTSVPKNFMELLTNQEAQQWVWGWRLNADSVLWGGHKVFMVKPEEPFQPVKEATQL [S201W], the “area with substrate EALYFQS” value was found to be 0.103, the “area with substrate ECLYFQS” value is 0.0835, the “area with substrate EDLYFQS” value amounted to 0.0934 and the “area with substrate EFLYFQS” value was determined as 0.0869. For the same variant, the “area with substrate EGLYFQS” value stood at 0.07, the “area with substrate EHLYFQS” value amounted to 0.0819, the “area with substrate EILYFQS” value came to 0.0732 and the “area with substrate EKLYFQS” value is 0.0903. The “area with substrate ELLYFQS” value worked out at 0.0631, the “area with substrate EMLYFQS” value amounted to 0.0734, the “area with substrate EPLYFQS” value came to 0.0604 and the “area with substrate EQLYFQS” value stood at 0.0834. The “area with substrate ERLYFQS” value is 0.0833, the “area with substrate ESLYFQS” value was determined as 0.0689, the “area with substrate ETLYFQS” value came out at 0.0497 and the “area with substrate EVLYFQS” value worked out at 0.105. Further, the “area with substrate EYLYFQS” value turned out to be 0.0676.
MGESLFKGPRDYNPISSSICHLTNESDGHTTSLYGIGFGPFIITNKHLFRRNNGTLVVQSLHGVFKVKDTTTLQQHLVDGRDMIIIRMPKDFPPFPQKLKFREPQREERICLVTTNFQTKSMSSMVSDTSCTFPSGDGIFWKHWIQTKDGQCGSPLVSTRDGFIVGIHSASNFTNTNNYFTSVPKNFMELLTNQELQQWVSGWRLNADSVLWGGHKVFMVKPEEPFQPVKEATQL [A196L]: the “area with substrate EALYFQS” value came to 0.149, the “area with substrate ECLYFQS” value is 0.122, the “area with substrate EDLYFQS” value worked out at 0.129 and the “area with substrate EFLYFQS” value came out at 0.132. Also, the “area with substrate EGLYFQS” value is 0.104, the “area with substrate EHLYFQS” value was determined as 0.14, the “area with substrate EILYFQS” value came to 0.113 and the “area with substrate EKLYFQS” value came to 0.13. Further, the “area with substrate ELLYFQS” value was determined as 0.098, the “area with substrate EMLYFQS” value stood at 0.121, the “area with substrate EPLYFQS” value amounted to 0.151 and the “area with substrate EQLYFQS” value was determined as 0.146. The “area with substrate ERLYFQS” value was 0.136, the “area with substrate ESLYFQS” value came out at 0.101, the “area with substrate EVLYFQS” value worked out at 0.103 and the “area with substrate EWLYFQS” value stood at 0.113. Further, the “area with substrate EYLYFQS” value came out at 0.104.
As for MGESLFKGPRDYNPISSSICHLTNESDGHTTSLYGIGFGPFIITNKHLFRRNNGTLVVQSLHGVFKVKDTTTLQQHLVDGRDMIIIRMPKDFPPFPQKLKFREPQREERICLVTTNFQTKSMSSMVSDTSCTFPSGDGIFWKHWIQTKDGQCGSPLVSTRDGFIVGIHSASNFTNTNNYFTSVPKNFMELLTNQEAKQWVSGWRLNADSVLWGGHKVFMVKPEEPFQPVKEATQL [Q197K], the “area with substrate EALYFQS” value stood at 0.127, the “area with substrate ECLYFQS” value worked out at 0.0904, the “area with substrate EFLYFQS” value turned out to be 0.0687 and the “area with substrate EHLYFQS” value turned out to be 0.0876. The “area with substrate EILYFQS” value was determined as 0.074, the “area with substrate EKLYFQS” value came to 0.131, the “area with substrate ESLYFQS” value stood at 0.105 and the “area with substrate EVLYFQS” value is 0.0815.
